Test results: the supplement of paper PMC8728848
The list shows a part of the results.

Experiments:
Experiment in all cases: glycan array binding signal (z-score within array); higher = stronger binding
Details in all cases: glycan notation: IUPAC condensed, linker removed
[1] = target: Fuc(a1-2)[Gal(a1-3)]Gal(b1-4)GlcNAc(b1-2)Man(a1-3)[Fuc(a1-2)[Gal(a1-3)]Gal(b1-4)GlcNAc(b1-2)Man(a1-6)]Man(b1-4)GlcNAc(b1-4)[Fuc(a1-6)]GlcNAc
Procedure, shortened: (§1)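 Glycan array data came from 3228 arrays in the Consortium for Functional Glycomics database, and only arrays with an available protein sequence were kept. Glycan names were put into IUPAC-condensed notation, and columns mapping to the same glycan were averaged. The binding signal is a within-array Z-score, averaged across arrays of one protein sequence run at different concentrations or buffers and across linkers. A negative Z-score can be read as non-binding.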

[2] = target: Fuc(a1-2)[Gal(a1-3)]Gal(b1-4)GlcNAc(b1-3)GalNAc
Procedure, shortened: as §1

[3] = target: Fuc(a1-2)[Gal(a1-3)]Gal(b1-4)GlcNAc(b1-3)[Fuc(a1-2)[Gal(a1-3)]Gal(b1-4)GlcNAc(b1-6)]GalNAc
Procedure, shortened: as §1

[4] = target: Fuc(a1-2)[Gal(a1-3)]Gal(b1-4)GlcNAc(b1-6)GalNAc
Procedure, shortened: as §1

[5] = target: Fuc(a1-2)[Gal(a1-3)]Gal(b1-4)[Fuc(a1-3)]Glc
Procedure, shortened: as §1

[6] = target: Fuc(a1-2)[Gal(a1-3)]Gal(b1-4)[Fuc(a1-3)]GlcNAc
Procedure, shortened: as §1

[7] = target: Fuc(a1-2)[Gal(a1-3)]Gal(b1-4)[Fuc(a1-3)]GlcNAc(b1-3)GalNAc
Procedure, shortened: as §1

[8] = target: Fuc(a1-2)[Gal(a1-4)]Gal(b1-4)GlcNAc
Procedure, shortened: as §1

[9] = target: Fuc(a1-2)[GalNAc(a1-3)]Gal
Procedure, shortened: as §1

[10] = target: Fuc(a1-2)[GalNAc(a1-3)]Gal(b1-3)GalNAc(a1-3)[Fuc(a1-2)]Gal(b1-4)GlcNAc
Procedure, shortened: as §1

[11] = target: Fuc(a1-2)[GalNAc(a1-3)]Gal(b1-3)GalNAc(b1-3)Gal(a1-4)Gal(b1-4)Glc
Procedure, shortened: as §1

[12] = target: Fuc(a1-2)[GalNAc(a1-3)]Gal(b1-3)GlcNAc
Procedure, shortened: as §1

[13] = target: Fuc(a1-2)[GalNAc(a1-3)]Gal(b1-3)GlcNAc(b1-2)Man(a1-3)[Fuc(a1-2)[GalNAc(a1-3)]Gal(b1-3)GlcNAc(b1-2)Man(a1-6)]Man(b1-4)GlcNAc(b1-4)GlcNAc
Procedure, shortened: as §1

[14] = target: Fuc(a1-2)[GalNAc(a1-3)]Gal(b1-3)GlcNAc(b1-2)Man(a1-3)[Fuc(a1-2)[GalNAc(a1-3)]Gal(b1-3)GlcNAc(b1-2)Man(a1-6)]Man(b1-4)GlcNAc(b1-4)[Fuc(a1-6)]GlcNAc
Procedure, shortened: as §1

[15] = target: Fuc(a1-2)[GalNAc(a1-3)]Gal(b1-3)GlcNAc(b1-3)GalNAc
Procedure, shortened: as §1

[16] = target: Fuc(a1-2)[GalNAc(a1-3)]Gal(b1-3)GlcNAc(b1-6)GalNAc
Procedure, shortened: as §1

[17] = target: Fuc(a1-2)[GalNAc(a1-3)]Gal(b1-4)Glc
Procedure, shortened: as §1

[18] = target: Fuc(a1-2)[GalNAc(a1-3)]Gal(b1-4)GlcNAc
Procedure, shortened: as §1

[19] = target: Fuc(a1-2)[GalNAc(a1-3)]Gal(b1-4)GlcNAc(b1-2)Man
Procedure, shortened: as §1

[20] = target: Fuc(a1-2)[GalNAc(a1-3)]Gal(b1-4)GlcNAc(b1-2)Man(a1-3)[Fuc(a1-2)[GalNAc(a1-3)]Gal(b1-4)GlcNAc(b1-2)Man(a1-6)]Man(b1-4)GlcNAc(b1-4)GlcNAc
Procedure, shortened: as §1

[21] = target: Fuc(a1-2)[GalNAc(a1-3)]Gal(b1-4)GlcNAc(b1-2)Man(a1-3)[Fuc(a1-2)[GalNAc(a1-3)]Gal(b1-4)GlcNAc(b1-2)Man(a1-6)]Man(b1-4)GlcNAc(b1-4)[Fuc(a1-6)]GlcNAc
Procedure, shortened: as §1

[22] = target: Fuc(a1-2)[GalNAc(a1-3)]Gal(b1-4)GlcNAc(b1-3)Gal(b1-4)GlcNAc
Procedure, shortened: as §1

[23] = target: Fuc(a1-2)[GalNAc(a1-3)]Gal(b1-4)GlcNAc(b1-3)Gal(b1-4)GlcNAc(b1-3)Gal(b1-4)GlcNAc
Procedure, shortened: as §1

[24] = target: Fuc(a1-2)[GalNAc(a1-3)]Gal(b1-4)GlcNAc(b1-3)GalNAc
Procedure, shortened: as §1

[25] = target: Fuc(a1-2)[GalNAc(a1-3)]Gal(b1-4)GlcNAc(b1-3)[Fuc(a1-2)[GalNAc(a1-3)]Gal(b1-4)GlcNAc(b1-6)]GalNAc
Procedure, shortened: as §1

[26] = target: Fuc(a1-2)[GalNAc(a1-3)]Gal(b1-4)GlcNAc(b1-6)GalNAc
Procedure, shortened: as §1

[27] = target: Fuc(a1-2)[GalNAc(a1-3)]Gal(b1-4)[Fuc(a1-3)]GlcNAc
Procedure, shortened: as §1

[28] = target: Fuc(a1-2)[GalNAc(a1-3)]Gal(b1-4)[Fuc(a1-3)]GlcNAc(b1-3)GalNAc
Procedure, shortened: as §1

[29] = target: Fuc(a1-2)[GalNAc(a1-4)]Gal(b1-4)GlcNAc
Procedure, shortened: as §1

[30] = target: Fuc(a1-2)[GalNAc(b1-3)]Gal
Procedure, shortened: as §1

B1: Cohesin-hLangerin (Homo sapiens) (protein)
chain: LDDLDAVRIKVDTVNAKPGDTVRIPVRFSGIPSKGIANCDFVYSYDPNVLEIIEIEPGDIIVDPNPDKSFDTAVYPDRKIIVFLFAEDSGTGAYAITKDGVFATIVAKVKEGAPNGLSVIKFVEVGGFANNDLVEQKTQFFDGGANVGDTTEPATPTTPVTTPTTTDDLDAASYPRFMGTISDVKTNVQLLKGRVDNISTLDSEIKKNSDGMEAAGVQIQMVNESLGYVRSQFLKLKTSVEKANAQIQILTRSWEEVSTLNAQIPELKSDLEKASALNTKIRALQGSLENMSKLLKRQNDILQVVSQGWKYFKGNFYYFSLIPKTWYSAEQFCVSRNSHLTSVTSESEQEFLYKTAGGLIYWIGLTKAGMEGDWSWVDDTPFNKVQSARFWIPGEPNNAGNNEHCGNIKAPSLQAWNDAPCDKTFLFICKRPYVPSEPHHHHHH
glycan array binding signal (z-score) [1]: 3.4
glycan array binding signal (z-score) [2]: -0.401
glycan array binding signal (z-score) [3]: 1.3
glycan array binding signal (z-score) [4]: -0.388
glycan array binding signal (z-score) [5]: -0.413
glycan array binding signal (z-score) [6]: -0.369
glycan array binding signal (z-score) [7]: -0.413
glycan array binding signal (z-score) [8]: -0.301
glycan array binding signal (z-score) [9]: 0.937
glycan array binding signal (z-score) [10]: -0.411
glycan array binding signal (z-score) [11]: -0.26
glycan array binding signal (z-score) [12]: -0.259
glycan array binding signal (z-score) [13]: 0.326
glycan array binding signal (z-score) [14]: 2.27
glycan array binding signal (z-score) [15]: -0.219
glycan array binding signal (z-score) [16]: -0.272
glycan array binding signal (z-score) [17]: -0.427
glycan array binding signal (z-score) [18]: -0.42
glycan array binding signal (z-score) [19]: -0.405
glycan array binding signal (z-score) [20]: -0.293
glycan array binding signal (z-score) [21]: 3.72
glycan array binding signal (z-score) [22]: -0.419
glycan array binding signal (z-score) [23]: 0.123
glycan array binding signal (z-score) [24]: -0.406
glycan array binding signal (z-score) [25]: -0.362
glycan array binding signal (z-score) [26]: -0.215
glycan array binding signal (z-score) [27]: -0.305
glycan array binding signal (z-score) [28]: -0.388
glycan array binding signal (z-score) [29]: -0.271
glycan array binding signal (z-score) [30]: -0.185
